From the supplement of paper PMC12217912
Some of the results follow. Sequences were assembled here from the parent chain. Inactive controls read about 0.05.

B1: TEV protease; numbered along this chain (parent)
chain: MGESLFKGPRDYNPISSSICHLTNESDGHTTSLYGIGFGPFIITNKHLFRRNNGTLVVQSLHGVFKVKDTTTLQQHLVDGRDMIIIRMPKDFPPFPQKLKFREPQREERICLVTTNFQTKSMSSMVSDTSCTFPSGDGIFWKHWIQTKDGQCGSPLVSTRDGFIVGIHSASNFTNTNNYFTSVPKNFMELLTNQEAQQWVSGWRLNADSVLWGGHKVFMVKPEEPFQPVKEATQL

Variants of: B1
Assay: raw area under fraction-flipped curve 0-4 h after induction (AUC4h, not background-subtracted), DNA-recorder readout of cleavage of the substrate (dimensionless); higher = more cleavage of the substrate by the protease variant
Settings: temperature: 34 °C; time window: 0-4 h after rhamnose induction
Experimental: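 In vivo DNA recorder in E. coli TOP10(DE3) ΔrhaA at 34 °C. Each TEVp single-site mutant (parent TEVp 0) is paired with a single-site variant of the 7-mer TEVs (canonical ENLYFQ|S). The substrate sits between flexible linkers in a Bxb1-sfGFP-TEVs-SsrA fusion, so cleavage stabilises Bxb1 and speeds flipping of a recombination array, read by NGS. The value is the raw area under the fraction-flipped curve over 0-4 h after rhamnose induction (AUC4h), with ≥20 reads per time point. It is not background-subtracted; inactive controls average about 0.047.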
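Note: Bxb1 expression induced with 0.2% (w/v) L-rhamnose at OD600 near 0.5, cultures sampled hourly, flipped fraction per protease–substrate barcode pair counted by paired-end Illumina sequencing.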

Row | Variant | area with substrate ANLYFQS | area with substrate CNLYFQS | area with substrate DNLYFQS | area with substrate FNLYFQS | area with substrate GNLYFQS | area with substrate HNLYFQS | area with substrate INLYFQS | area with substrate KNLYFQS | area with substrate LNLYFQS | area with substrate MNLYFQS | area with substrate NNLYFQS | area with substrate PNLYFQS | area with substrate QNLYFQS | area with substrate SNLYFQS | area with substrate TNLYFQS | area with substrate VNLYFQS | area with substrate WNLYFQS | area with substrate RNLYFQS | area with substrate YNLYFQS
1 | T30S | 0.0576 | 0.0673 | 0.0737 | 0.0631 | 0.0763 | 0.0569 | 0.0458 | 0.0727 | 0.0627 | 0.0672 | 0.0457 | 0.0555 | 0.0697 | 0.0703 | 0.0719 | 0.0911 | 0.0608 | – | –
2 | T31E | 0.0669 | 0.0587 | 0.103 | 0.0647 | – | 0.0659 | 0.0656 | – | 0.0717 | 0.0655 | 0.0565 | 0.0629 | – | 0.066 | 0.0664 | 0.0534 | 0.0658 | 0.0515 | 0.0545
3 | S32E | 0.0644 | 0.0616 | 0.0638 | 0.0553 | – | 0.0669 | 0.0671 | 0.0666 | 0.0515 | 0.057 | – | – | 0.0811 | 0.0714 | 0.0614 | 0.0805 | 0.061 | 0.0561 | 0.0612
4 | S32G | 0.0794 | 0.0711 | 0.0751 | 0.0762 | – | 0.0634 | 0.0708 | 0.0498 | 0.0727 | 0.0654 | – | 0.0586 | 0.0693 | 0.0652 | 0.0643 | – | 0.0639 | – | –
5 | S32L | 0.0656 | 0.102 | 0.0789 | 0.0667 | 0.0834 | 0.0621 | 0.0606 | – | 0.0738 | 0.0644 | – | – | 0.0662 | 0.0638 | 0.0727 | 0.0597 | 0.0636 | 0.0584 | 0.061
6 | S32P | 0.0469 | 0.0632 | – | – | – | 0.0629 | 0.0558 | 0.0712 | – | 0.0612 | 0.0639 | 0.0505 | – | 0.0664 | 0.0586 | 0.0459 | 0.0584 | – | 0.0574
7 | S32W | 0.0675 | 0.0487 | 0.0847 | – | – | 0.0597 | – | 0.0596 | 0.0665 | – | 0.06 | 0.0716 | – | – | 0.0627 | 0.0598 | 0.0678 | – | 0.0559
8 | S32Y | 0.0493 | 0.0638 | 0.08 | 0.0527 | 0.0683 | 0.066 | 0.0625 | 0.0727 | 0.0595 | 0.0675 | 0.0708 | 0.0645 | – | 0.0688 | 0.0531 | 0.0536 | 0.0635 | – | 0.0618
9 | L33N | 0.0559 | 0.066 | 0.0998 | – | 0.0612 | 0.0611 | 0.0592 | 0.0636 | 0.0631 | 0.0545 | 0.0881 | – | 0.0573 | 0.0734 | 0.0596 | 0.0522 | 0.0633 | 0.0605 | –
10 | G39A | 0.0557 | 0.0093 | 0.0312 | 0.0546 | 0.044 | 0.0701 | 0.0508 | – | – | 0.0435 | 0.0237 | 0.0356 | – | 0.0527 | 0.0329 | 0.0327 | 0.0387 | – | 0.0614
11 | P40C | 0.063 | 0.0746 | – | 0.0663 | – | 0.0752 | 0.09 | 0.067 | 0.0631 | 0.0654 | – | 0.0654 | – | – | 0.0611 | 0.0608 | 0.0607 | 0.058 | 0.0856
12 | P40F | 0.0634 | 0.12 | – | 0.0586 | 0.072 | 0.0511 | 0.0591 | – | 0.0576 | 0.0651 | 0.0812 | 0.0671 | 0.0828 | 0.0591 | 0.0631 | – | 0.0357 | – | 0.0553
13 | P40G | 0.0704 | 0.0655 | 0.0968 | 0.0728 | 0.0855 | 0.0631 | 0.0674 | 0.0682 | 0.0479 | 0.0342 | 0.0819 | 0.0703 | – | 0.0712 | – | – | 0.034 | – | 0.0677
14 | P40K | 0.0848 | 0.0767 | 0.0846 | – | 0.0664 | 0.0732 | 0.0618 | – | – | 0.0632 | 0.0733 | – | – | 0.0495 | 0.07 | 0.0643 | 0.0591 | – | 0.0631
15 | P40R | 0.0732 | 0.0539 | 0.126 | – | 0.0727 | 0.0495 | 0.0825 | 0.0701 | – | 0.0653 | 0.0686 | 0.0708 | – | 0.0701 | 0.0533 | – | 0.0672 | – | 0.0578
16 | P40T | 0.0603 | 0.0521 | 0.0755 | 0.055 | 0.0677 | 0.0617 | 0.063 | 0.067 | 0.0696 | 0.0635 | 0.0541 | 0.0652 | – | 0.0679 | 0.0837 | 0.0525 | 0.0624 | 0.0695 | 0.078
17 | I43K | 0.0445 | 0.0512 | 0.057 | 0.0521 | 0.0481 | 0.0469 | 0.0449 | 0.0427 | 0.0303 | 0.0553 | 0.037 | 0.0529 | 0.0481 | – | 0.0503 | – | 0.0529 | – | –
18 | I43R | 0.0672 | 0.0417 | 0.0344 | 0.0474 | 0.0388 | 0.0405 | 0.0459 | 0.0309 | – | – | – | 0.0384 | 0.0772 | 0.0521 | 0.0459 | 0.0401 | 0.0515 | – | 0.0417
19 | T44A | 0.0601 | 0.063 | 0.0684 | 0.0536 | 0.0625 | 0.0597 | 0.0517 | 0.0646 | 0.0612 | – | 0.0599 | 0.0585 | – | 0.0322 | 0.0667 | 0.0517 | 0.0587 | 0.0556 | 0.0579
20 | T44F | 0.0506 | 0.0521 | 0.059 | 0.0251 | 0.0451 | 0.0357 | 0.0583 | 0.0685 | 0.0491 | – | 0.0516 | 0.0586 | – | – | 0.0555 | – | 0.0651 | – | 0.0488
21 | K46S | 0.0725 | 0.0666 | 0.0678 | 0.0443 | – | 0.0618 | 0.076 | 0.063 | 0.0624 | 0.0624 | 0.0664 | 0.0682 | – | 0.0754 | 0.0757 | 0.0845 | 0.0645 | – | 0.0517
22 | L48F | 0.0762 | 0.061 | – | 0.0626 | – | 0.065 | 0.0715 | 0.0591 | 0.0728 | 0.052 | 0.0319 | – | – | – | – | – | 0.0463 | – | 0.0501
23 | L48G | 0.0788 | 0.0686 | 0.0628 | 0.0591 | 0.0597 | 0.0602 | 0.0716 | 0.0583 | 0.0707 | 0.0544 | – | 0.0638 | – | 0.0661 | 0.0592 | – | 0.0621 | – | 0.0637
